# Laboratory results as given in publication PMC4336329 (PLoS ONE, 2015).
# The whole screen tested about 310,000 compounds, of which about 2,200 (0.71%) showed an effect of 50% or more. Effects have a minus sign here. This is one part of the list.
# Target: human ether-à-go-go-related gene (hERG) potassium channel (human, UniProt Q12809)
# Test: primary screen, population patch clamp on CHO cells stably expressing hERG
# human ether-à-go-go-related gene (hERG) potassium channel, sequence (Q12809 whole entry, looked up): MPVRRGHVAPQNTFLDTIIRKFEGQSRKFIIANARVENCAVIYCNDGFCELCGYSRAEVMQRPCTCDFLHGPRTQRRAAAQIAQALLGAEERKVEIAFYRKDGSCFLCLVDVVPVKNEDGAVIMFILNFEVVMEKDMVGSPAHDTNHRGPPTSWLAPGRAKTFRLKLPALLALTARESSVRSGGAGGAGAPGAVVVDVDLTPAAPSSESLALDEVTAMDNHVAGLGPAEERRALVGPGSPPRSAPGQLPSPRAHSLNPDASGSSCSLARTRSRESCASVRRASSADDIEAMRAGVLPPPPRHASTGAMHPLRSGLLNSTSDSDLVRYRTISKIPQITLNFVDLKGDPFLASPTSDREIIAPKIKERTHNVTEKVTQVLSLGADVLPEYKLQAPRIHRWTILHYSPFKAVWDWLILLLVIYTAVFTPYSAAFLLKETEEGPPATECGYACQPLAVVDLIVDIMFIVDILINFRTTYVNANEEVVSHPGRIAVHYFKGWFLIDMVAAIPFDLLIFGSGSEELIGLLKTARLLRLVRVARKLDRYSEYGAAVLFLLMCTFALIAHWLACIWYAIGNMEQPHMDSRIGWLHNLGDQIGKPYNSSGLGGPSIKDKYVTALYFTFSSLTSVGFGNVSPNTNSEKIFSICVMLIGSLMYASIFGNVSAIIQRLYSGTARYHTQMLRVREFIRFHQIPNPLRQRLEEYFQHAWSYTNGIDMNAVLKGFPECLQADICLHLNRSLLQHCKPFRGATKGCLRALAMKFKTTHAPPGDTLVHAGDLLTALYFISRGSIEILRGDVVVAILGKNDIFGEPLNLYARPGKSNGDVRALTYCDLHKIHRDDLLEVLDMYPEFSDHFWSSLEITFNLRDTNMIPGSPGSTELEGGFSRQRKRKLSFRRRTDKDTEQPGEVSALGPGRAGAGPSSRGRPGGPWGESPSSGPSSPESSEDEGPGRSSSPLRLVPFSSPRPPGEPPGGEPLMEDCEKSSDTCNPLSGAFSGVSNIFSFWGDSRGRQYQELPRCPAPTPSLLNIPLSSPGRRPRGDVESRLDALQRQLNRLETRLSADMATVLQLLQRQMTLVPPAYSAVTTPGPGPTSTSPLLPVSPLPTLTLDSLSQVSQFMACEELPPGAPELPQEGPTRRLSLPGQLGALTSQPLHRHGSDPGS
row,Compound,"hERG current change (%, negative = inhibition) at 1uM [%]"
1,O=C(O)c1ccc(-c2ccccc2Cl)o1,8.92
2,COc1ccccc1CN(C(=O)c1cnccn1)C(C(=O)NC1CCCCC1)c1cc(OC)c(OC)c(OC)c1 (stereo not drawn),19.3
3,CC(C)C(=O)NS(=O)(=O)c1ccc(NS(C)(=O)=O)cc1,8
4,CCN(CC)C(=O)Cn1nc(-c2ccc(Cl)cc2)c2ccccc2c1=O,-5.61
5,CCC(NC(=O)c1ccccc1NC(=O)c1ccccc1)C(=O)O (stereo not drawn),7.84
6,CC(C)C[C@H](NC(=O)Nc1ccccc1F)C(=O)O,-1.14
7,CCOc1ncccc1C(=O)OCC(=O)N1CCN(S(=O)(=O)c2ccccc2)CC1,9.36
8,CC(C)c1ccc(NC(=O)C2C3C=CC4(CN(CCCN5CCOCC5)C(=O)C24)O3)cc1 (stereo not drawn),0.84
9,COc1cccc(CNC(=O)C(=O)NCC2OCCCN2S(=O)(=O)c2cc(C)ccc2C)c1 (stereo not drawn),7.64
10,CC(=O)Nc1cc(ON=C(C)C)cc([N+](=O)[O-])c1,11.3
11,Cc1cc(C(=O)OCC(=O)NCCCN2CCCC2=O)c2ccccc2n1,12.4
12,CCOc1ccc(CNc2ccc3c(c2)ncn3C(C)(C)C)cc1,-17.5
13,Nc1ccc(CCc2ccc(N)cc2)cc1,10.7
14,CCCCNC(=O)[C@@H]1CSC2c3ccc(OC)c(OC)c3C(=O)N21 (stereo partly drawn),3.63
15,Cl.Nc1ccn([C@@H]2O[C@H](CO)[C@@H](O)[C@@H]2O)c(=O)n1,13.3
16,O=C(c1ccccc1)c1cc2ccccc2oc1=O,10.3
17,COc1ccc(C2C(C#N)=C(/N=C/N3CCN(C)CC3)OC3=C2C(=O)CC(C)(C)C3)cc1 (stereo not drawn),-6.72
18,COc1cc(C2C(C#N)=C(N)Oc3cc(C)n(CCN4CCOCC4)c(=O)c32)cc(OC)c1OC (stereo not drawn),17.5
19,CC(=O)Nc1ccc(NC2=CC(=O)c3ccccc3C2=O)cc1,8.22

row,Compound,"hERG current change (%, negative = inhibition) at 1uM [%]"
1,COc1ccc(NC(=O)c2cccc3c2C(=O)N(C2CCCCC2)C3)cc1,13.5
2,Cc1ccccc1Nc1nc(N)nc(CSc2ccc(F)cc2)n1,2.31
3,COc1ccc(N2C(=O)CCC(C(=O)N3CCC(C(N)=O)CC3)C2c2ccc(F)cc2)cc1 (stereo not drawn),7.27
4,CCc1ccc(Nc2ccc3nonc3c2[N+](=O)[O-])cc1,5.17
5,CC(=O)Nc1cccc(-n2nnc(SCC(N)=O)n2)c1,10.3
6,Cn1c(-c2ccccc2)cnc1SCc1nc2ccccc2c(=O)[nH]1,-38.7
7,COc1cccc(C(=O)C2CCCN(CC3=Cc4cc(OC)ccc4OC3)C2)c1 (stereo not drawn),-25.9
8,CC1(CCCN2C(=O)c3ccccc3C2=O)OCCO1,12.6
9,COc1ccc(N2CCN(S(=O)(=O)c3cccc4cccnc34)CC2)cc1,-1.29
10,CCOC(=O)c1sc(NC(=O)COc2ncnc3ccccc23)c(C(=O)OCC)c1C,10.8
11,CC(=O)N1CCN=C1SCc1ccccc1,17.9
12,Cc1ccc(C(=O)/C=C/N(C)C)cn1,13.6
13,CC1=C(C)CC(C(=O)Nc2ccc(C(=O)N3CCOCC3)cc2)C(C(=O)O)C1 (stereo not drawn),20.6
14,NC(=O)c1cc(S(=O)(=O)NCc2cccc(Br)c2)cs1,10.8
15,CCCn1cc(CN2CCCC(CNC(=O)c3ccc(F)cc3)C2)c(C)n1 (stereo not drawn),16.2
16,CCNC(=O)CC1SC(=Nc2ccc(C)cc2)N(CC)C1=O (stereo not drawn),14.9
17,COC(C[C@@H]1O[C@@H]1C(=O)[C@H](C)OCc1ccccc1)OC,15.3
18,Cc1cc(-c2ccccc2)nc(Cl)c1C#N,19
19,CCOc1ccc2nc(N3CCCC(C(=O)NC4CCCC4)C3)sc2c1 (stereo not drawn),13.7

row,Compound,"hERG current change (%, negative = inhibition) at 1uM [%]"
1,Cn1nc(C(F)(F)F)c(-c2ccccc2)c1NC(=O)CCC(=O)O,11.9
2,Fc1ccc(/C=N/Nc2cc(N3CCOCC3)ncn2)cc1,10.6
3,CCOC(=O)N1CCN(S(=O)(=O)c2cc(Br)cnc2N)CC1,-4.58
4,Cc1csc2nc(CNS(=O)(=O)c3cccnc3)cn12,13
5,Cc1nc2c(=O)n(-c3ccc(F)c(Cl)c3)nc(C)c2s1,12.6
6,CC[n+]1c(/C=C/c2ccc(OC(C)=O)c(OC)c2)ccc2ccccc21.[I-],13.3
7,C[N+]1(CC2COC3(CCCCC3)O2)CCCC1.[I-] (stereo not drawn),11.6
8,O=C(COCc1cc(-c2ccc3c(c2)OCO3)on1)N1CCN(c2cccc(Cl)c2)CC1,10.3
9,CCOCCCN(C)C1CCN(C(=O)c2oc3ccccc3c2NC(=O)Cc2ccc([N+](=O)[O-])cc2)CC1,-89.1
10,COc1ccc(CNc2nc3c(c(=O)[nH]c(=O)n3C)n2Cc2ccccc2C)cc1,13.4
11,CCOC(=O)C(=O)Nc1nc(-c2ccccc2)c(-c2ccccc2)o1,1.95
12,CC(C)(C)c1nnc(NC(=O)C2CC(=O)N(CCc3ccc(F)cc3)C2)s1 (stereo not drawn),12.2
13,O=C(Cc1ccccc1)NNC(=O)Nc1ccccc1,11.1
14,CCCn1nc(NC(=O)c2ccco2)c2cc3ccc(C)cc3nc21,0.437
15,COc1ccc2cc(-c3[nH]ncc3CN3CCCCO3)ccc2c1,1.71
16,CCc1ccc2oc(=O)cc(CN3CCN(c4ccc(F)cc4)CC3)c2c1,8.35
17,Cc1cnc(C(=O)OCC(=O)NCCCc2ccccc2)cn1,13.7
18,COc1ccc(CN(Cc2ccccn2)S(=O)(=O)c2ccc(-n3cnnn3)c(OC)c2)cc1,-4.46
19,O=C(O)C1C2CCC(C2)C1C(=O)Nc1ccccc1 (stereo not drawn),3.71
